Reference: article PMC12136788
Some of the results follow.

T1: UNK ZnF1-6 (called full-length) (human, UniProt Q9C0B0 30-357)
T1 sequence: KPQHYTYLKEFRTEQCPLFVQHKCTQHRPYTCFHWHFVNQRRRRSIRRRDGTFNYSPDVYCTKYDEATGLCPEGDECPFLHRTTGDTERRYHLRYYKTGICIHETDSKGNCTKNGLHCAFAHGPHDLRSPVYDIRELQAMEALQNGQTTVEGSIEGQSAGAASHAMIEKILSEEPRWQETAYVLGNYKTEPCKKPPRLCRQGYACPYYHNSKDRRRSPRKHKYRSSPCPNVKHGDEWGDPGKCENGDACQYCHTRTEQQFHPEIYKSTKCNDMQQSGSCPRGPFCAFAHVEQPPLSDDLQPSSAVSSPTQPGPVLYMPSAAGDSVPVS

B1: chr5:43295829:43295944:-|CDS|ENSG00000112972|unk|total|mutant (ssRNA)
RNA: GGGAGUUCUACAGUCCGACGAUCAAUAUCCCCGCUUUAUUCUAAAGUCAAACUUUAAAAUUUCAUGGCUUAUAUGAAUUUCACCGUUUCCUUGGACUUCUCUUUCAGAGGGAAAUGAUAAAGAUUUUACCUUGAAUGAUUUUGCAACAGAGGAUUGAGCAUCA
B2: chr2:135782819:135782876:+|CDS|ENSG00000144224|msi1_unk|FALSE|overlapping (ssRNA)
RNA: GGGAGUUCUACAGUCCGACGAUCGUGAGAAAAAGAGUGCUGGAAAAACGUGGAGACGACUUUAAAAAGGAGGGGAAAAUUUAUAGAUUAAGGACUCAAGAUGAUGGUGAAGAUGAAAACAACACUUGGAAUGGAAAUUCCACUCAACAGAGGAUUGAGCAUCA
B3: chr9:114598126:114598323:+|3pUTR|ENSG00000136888|msi1|total|mutant (ssRNA)
RNA: GGGAGUUCUACAGUCCGACGAUCUCUUUGUAACCUGUGUGAAGCAGCAGCCAGCCUUAAAGCCGUCCAUUCUUGCUAAUGGUCCGAACAGUGAAUACCCGUGGAAUUGUUUGGGCUGCUUUCCGUUUCUCUUAAUCAAAAUUACAACAGAGGAUUGAGCAUCA
B4: chr5:52955293:52955406:+|3pUTR|ENSG00000213949|unk|total|mutant (ssRNA)
RNA: GGGAGUUCUACAGUCCGACGAUCUACCAACCAGUGUGAGCUGACUUCAGCACACCACUGAGACAGAUUACACGACCGACAGACCGACCGACCGACCGACCGACCGACCGACCGACCGACCGACCGAUAUUGACCGAGAACAUGCAACAGAGGAUUGAGCAUCA
B5: chr13:52036708:52036809:-|3pUTR|ENSG00000197168|unk|FALSE|unique (ssRNA)
RNA: GGGAGUUCUACAGUCCGACGAUCGUAGAACUUUUGAAUAUAGCCAUUAAUAUUUUUACUUUAAAGUUUCUAUUAAGAAAUCUUAGGCCGGGCAGUCUCAUCACUUUGGGAGGCCAAGGCAGGCAGAUCAUGAGGUCAGGAGUUCAACAGAGGAUUGAGCAUCA
B6: chr6:49492913:49492980:+|3pUTR|ENSG00000031691|msi1_unk|FALSE|overlapping (ssRNA)
RNA: GGGAGUUCUACAGUCCGACGAUCUGUUGAAUAUUUUCUACUGUCAUCAAAACAUAUUCCCAAAAAGUAUUAAAAAGGAACCUUAGCACAUUUAUUUUAUUAAAACAAGAAAACCCAAAAUAUAUAAACCUUUUCUUAUUAUGACAACAGAGGAUUGAGCAUCA
B7: chr22:38111494:38112305:-|three_prime_utr|ENSG00000184381|control|control|control (ssRNA)
RNA: GGGAGUUCUACAGUCCGACGAUCAGGCCAAGCCCAGCCACUGCCCUCCCGGGCAGAUCUGGGCCCAGGCACCUCUGAGUCCAUAGACCAGGCCUGGGAGAAUGCCAAGCUGCCUGCCCGAGGCUGGUCCUGAAGGCCUGUCUCCAACAGAGGAUUGAGCAUCA
B8: chr10:60791946:60792061:+|CDS|ENSG00000170312|unk|FALSE|unique (ssRNA)
RNA: GGGAGUUCUACAGUCCGACGAUCGUCAGCUCGUUACUCAACUCCAGUUGACAUUUGGAGUAUAGGCACCAUAUUUGCUGAACUAGCAACUAAGAAACCACUUUUCCAUGGGGAUUCAGAAAUUGAUCAACUCUUCAGGAUUUUCAACAGAGGAUUGAGCAUCA
B9: chr3:149084675:149084859:-|CDS|ENSG00000071794|unk|total|mutant (ssRNA)
RNA: GGGAGUUCUACAGUCCGACGAUCCCAACUUUCUUUCCACGUUUUGAAUUCCAAGAUGUUAUCCCUCCAGAUGACUUUCUAACCCGUGAUGAAGAAGCCGAUUCCGUUUUAUUUGGAAGUUUGAGAGGUCAUGUGGUUGGACUACAACAGAGGAUUGAGCAUCA
B10: chr17:77216858:77216994:+|3pUTR|ENSG00000129657|unk|FALSE|bound_elsewhere (ssRNA)
RNA: GGGAGUUCUACAGUCCGACGAUCUGUUUCUACCUUUAGUACCUUGCCACUCUUUUAAAACGCUGCUGUCAUUUCCCAUUUCUUAGUACUAAUGAUUCUUUGAUUCUCCCUCUAUUAUGUCUUAAUUCACUUUCCUUCCUAAAUCAACAGAGGAUUGAGCAUCA
B11: chrX:149548394:149548910:-|CDS|ENSG00000283697|control|control|control (ssRNA)
RNA: GGGAGUUCUACAGUCCGACGAUCGCUACUACCUGGAUGGAAGGCACAGGGAUUCUUAGUAGUCUGGUUUACUCAGAUAAUGGUAGUGUAAUGUCUUUGUACAAUAUCUGUUACUAUGCUCUGUUGGCCUCCCUCUCAGUCAUGCAACAGAGGAUUGAGCAUCA
B12: ENSG00000070961:be:win_5751|3pUTR|ENSG00000070961|bound_else_gene|NA|bound_elsewhere_windowed (ssRNA)
RNA: GGGAGUUCUACAGUCCGACGAUCCUAAAAAUUGACCCUAUCAACUGGAGAGCCCACAAGGCAUAGGGAAUAGAGAAAAGGGAAAUGUUUUCAGUUUUCUUUUUUAUUUUGGUUAUGCUUAAAUAUGAAUGUAAUUACCAAAAGCAACAGAGGAUUGAGCAUCA
B13: chr4:177362735:177362840:+|3pUTR|ENSG00000109674|unk|FALSE|unique (ssRNA)
RNA: GGGAGUUCUACAGUCCGACGAUCAAAGUGUUUUUAGUAUGCUUUUAGUCUCUUGUAACUGGGGAGAAGCAGUGUUUUUUUUUUAGGAAAGGAUUAUGCGACACAAUAAAAUAAGAUAUUCUGUCUGUAGUGAAUACAUUUCUCCAACAGAGGAUUGAGCAUCA
B14: chr1:27370145:27370587:-|three_prime_utr|ENSG00000142748|control|control|control (ssRNA)
RNA: GGGAGUUCUACAGUCCGACGAUCCCAGUGCUGCCACUGCCCCCAUGAAUGACCCAGGGCAAUCCUGUCUCCUCUGUGGGCCUUAGUUUCCGCAUCUGAGAAAUGGCAAUCAUGAAACAGGAUGGUGCAACAGUGAAGAAUUUGCAACAGAGGAUUGAGCAUCA
B15: chr17:19904301:19906232:-|three_prime_utr|ENSG00000108599|control|control|control (ssRNA)
RNA: GGGAGUUCUACAGUCCGACGAUCAACAGCACUAUAUUUCUGAUCUGUCACUGUUGUUUCCAGGAGAGAAUGGGAGACAAUCCUAGACUUCCACCAUAAUGCAGUUACCUGUAGGCAUAAUUGAUGCACAUGAUGUUCACACAGCAACAGAGGAUUGAGCAUCA
B16: chr11:62888716:62888817:+|3pUTR|ENSG00000168003|unk|FALSE|unique (ssRNA)
RNA: GGGAGUUCUACAGUCCGACGAUCUUUUCUCUUUUUUAAAAACAAACAAACAAACUGUUGCAGAUUAUGAGUGAACCCCCAAAUAGGGUGUUUUCUGCCUUCAAAUAAAAGUCACCCCUGCAUGGUGAAGUCUUCCCUCUGCUUCAACAGAGGAUUGAGCAUCA
B17: chr1:162523450:162523604:+|3pUTR|ENSG00000152332|msi1|FALSE|unique (ssRNA)
RNA: GGGAGUUCUACAGUCCGACGAUCAGACUAAGUUGUGCCAGAUGUAAAUCAACCCCUCUUUUAGUUUACUUUAGACUUUGUAUUAGCUCAUCUUUUUUGUAGUAAAUCUAUAGUUUUAAGGUUUCUCAAGAUGUGGCUCUACCUCAACAGAGGAUUGAGCAUCA
B18: chr5:160402147:160402258:-|3pUTR|ENSG00000164609|unk|FALSE|unique (ssRNA)
RNA: GGGAGUUCUACAGUCCGACGAUCAUGGUUUACAUUACCGUUUGUUUUCAUUGUGAUUGCCCCUAUGUAACAAUCAUGAAUAUUAGAUUUUUUAAAUUGUAGAAUAUCCUAAUAUUUAUAGCCAGCAGCUGUUACUUUGUUUGUCAACAGAGGAUUGAGCAUCA
B19: chrX:74588119:74588220:-|3pUTR|ENSG00000131263|msi1|total|mutant (ssRNA)
RNA: GGGAGUUCUACAGUCCGACGAUCUCCGAAAAUGCUGGGAUUACAGGCGUGAGCCACCAUGUCCAGCCAAAGUUGAGGUUUAUCCGUACUAUCCGAAACAAAAUUGAGCAAGUUAAGUUAAAAGUUUGCUGACUUUGUAUCAACCAACAGAGGAUUGAGCAUCA
B20: chr15:48342169:48342270:+|3pUTR|ENSG00000128951|msi1_unk|FALSE|overlapping (ssRNA)
RNA: GGGAGUUCUACAGUCCGACGAUCAAAAAAAAAAAAAGUUUUUGCUUCAAGUGUUUUGGUGUUUUGCACUUCUGUAAACUUACUAGCUUUACCUUCUAAAAGUACUGCAUUUUUUACUUUUUUUUAUGAUCAAGGAAAAGAUCACAACAGAGGAUUGAGCAUCA
B21: chr12:98549714:98549829:+|3pUTR|ENSG00000120802|unk|FALSE|unique (ssRNA)
RNA: GGGAGUUCUACAGUCCGACGAUCGAAGAUGUAUAUUUAGACCAGCACACAAUUUUGAUUUCAAUUAGCCUUAUUCUAAUAUUUAGCUUUUAGAUCUUUCAUACACAUUUUCACGUACUUUGCAAUUGAGACCAGAAAGACUUGCAACAGAGGAUUGAGCAUCA
B22: chr1:24654915:24655033:+|CDS|ENSG00000133226|unk|FALSE|unique (ssRNA)
RNA: GGGAGUUCUACAGUCCGACGAUCUCACGGUCACCACCAAAGAAGCCUCCCAAGAGGACAUCCAGCCCCCCUCGGAAAACUCGUAGGUUAUCUCCUUCAGCAAGUCCUCCAAGGCGAAGGCACAGGCCAUCACCUCCUGCAACUCAACAGAGGAUUGAGCAUCA

These binders were tested against T1, UNK ZnF1-6 (called full-length) (assay: nsRBNS (natural sequence RNA bind-n-seq); RBNS binding buffer (assumed for nsRBNS): 25 mM Tris pH 7.5, 150 mM KCl, 3 mM MgCl2, 0.01% Triton X-100, 500 ug/ml BSA, 20 U/ml SUPERase-In, 4 C; UNK is unkempt and MSI1 is Musashi-1; names of the RNAs are library labels; protein concentration not given here; high values mean tight binding).
B1 was tested, and the binding signal was 0.421 enrichment R.
In the case of B2, the binding signal is reported as 0.905 enrichment R.
With B3 the binding signal was 0.687 enrichment R.
In the case of B4, the binding signal is reported as 0.427 enrichment R.
In the case of B5, the binding signal is reported as 21 enrichment R.
Binder B6 has a binding signal of 8.45 enrichment R.
In the case of B7, the binding signal is reported as 1.94 enrichment R.
B8 gave a binding signal of 0.452 enrichment R.
With B9 the binding signal was 0.5 enrichment R.
Binder B10 has a binding signal of 14 enrichment R.
B11 gave a binding signal of 0.662 enrichment R.
For B12, the binding signal was 0.412 enrichment R.
Work on B13 yielded a binding signal of 1.93 enrichment R.
In the case of B14, the binding signal is reported as 0.792 enrichment R.
B15 was tested, and the binding signal was 0.707 enrichment R.
For B16, the binding signal was 0.635 enrichment R.
With B17 the binding signal was 58.2 enrichment R.
For B18, the binding signal was 5.04 enrichment R.
B19 was tested, and the binding signal was 0.335 enrichment R.
B20 gave a binding signal of 0.399 enrichment R.
With B21 the binding signal was 32.9 enrichment R.
Work on B22 yielded a binding signal of 0.707 enrichment R.
